From the supplement of paper PMC4967469
By IC50 is meant the dose at which the fit gives 50% viability; a fit beyond the top or the lowest dose is shown as a bound at that dose. AUC, from the same fit, is the share of area under the viability curve across the 256-fold dose range; the more sensitive the line, the further below 1. For some of these results: Any top dose called inferred was calculated from the reported fits. For some of these results: Where an entry number is given, a second screen of the drug exists; the two often differ.

Experiments:
Assay in all cases: Viability of human cancer cell lines after 72 h of drug (GDSC screen)
[1] = compound: CS(=O)(=O)N1CCN(Cc2cc3nc(-c4cccc5[nH]ncc45)nc(N4CCOCC4)c3s2)CC1 [GDC0941]; settings: top dose 4 µM; screen: GDSC drug entry 1527; top dose inferred
Description: (§1)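 Human cancer cell lines in 384-well plates, medium with 10% serum, drug for 72 h over a 256-fold dose range (nine 2-fold or five 4-fold steps up to the top dose). Adherent lines were fixed and stained with the nucleic acid dye Syto60, suspension lines read with resazurin; signal relative to control wells, capped at 0 and 100%. One two-parameter sigmoid per drug and line, fitted in a mixed model over all curves with the slope shared within a line.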

[2] = compound: CC(C)C[C@@H](C=O)NC(=O)[C@H](CC(C)C)NC(=O)[C@H](CC(C)C)NC(=O)OCc1ccccc1 [MG-132]; settings: top dose 1 µM
Description: as §1

[3] = compound: CC(C)[C@H](C(=O)Nc1ccc(C(=O)NO)cc1)c1ccccc1 [AR-42]; settings: top dose 5.12 µM; top dose inferred
Description: as §1

[4] = compound: C[C@]12O[C@H](C[C@]1(O)CO)n1c3ccccc3c3c4c(c5c6ccccc6n2c5c31)CNC4=O [CEP-701]; settings: top dose 2 µM; top dose inferred
Description: as §1

[5] = compound: Cc1ccc(Nc2nccc(N(C)c3ccc4c(C)n(C)nc4c3)n2)cc1S(N)(=O)=O [Pazopanib]; settings: top dose 8 µM
Description: as §1

[6] = compound: Cn1cc(C2=C(c3ccc(Cl)cc3Cl)C(=O)NC2=O)c2ccccc21 [SB 216763]; settings: top dose 10 µM; top dose inferred
Description: as §1

[7] = compound: CCN(CC)CCNC(=O)c1c(C)[nH]c(/C=C2\C(=O)Nc3ccc(F)cc32)c1C [Sunitinib]; settings: top dose 8 µM
Description: as §1

Cell Line: H9 (lymphoid neoplasm, suspension)
- AUC [1]: 0.94
- IC50 [1]: > 4 µM
- AUC [2]: 0.734
- IC50 [2]: 0.249 µM
- AUC [3]: 0.986
- IC50 [3]: > 5.12 µM
- AUC [4]: 0.564
- IC50 [4]: 0.181 µM
- AUC [5]: 0.992
- IC50 [5]: > 8 µM
- AUC [6]: 0.991
- IC50 [6]: > 10 µM
- AUC [7]: 0.752
- IC50 [7]: 2.24 µM

Cell Line: HA7-RCC (kidney, adherent)
- AUC [1]: 0.693
- IC50 [1]: 0.927 µM
- AUC [2]: 0.872
- IC50 [2]: > 1 µM
- AUC [3]: 0.976
- IC50 [3]: > 5.12 µM
- AUC [4]: 0.795
- IC50 [4]: 1.04 µM
- AUC [5]: 0.931
- IC50 [5]: > 8 µM
- AUC [6]: 0.985
- IC50 [6]: > 10 µM
- AUC [7]: 0.817
- IC50 [7]: 5.08 µM

Cell Line: HAL-01 (lymphoblastic leukaemia, suspension)
- AUC [1]: 0.319
- IC50 [1]: 0.0833 µM
- AUC [2]: 0.858
- IC50 [2]: 0.675 µM
- AUC [3]: 0.291
- IC50 [3]: 0.0895 µM
- AUC [4]: 0.458
- IC50 [4]: 0.0972 µM
- AUC [5]: 0.988
- IC50 [5]: > 8 µM
- AUC [6]: 0.942
- IC50 [6]: > 10 µM
- AUC [7]: 0.731

Cell Line: HC-1 (hairy cell leukaemia, suspension)
- AUC [1]: 0.735
- IC50 [1]: 1.14 µM
- AUC [2]: 0.743
- IC50 [2]: 0.299 µM
- AUC [3]: 0.386
- IC50 [3]: 0.158 µM
- AUC [4]: 0.89
- IC50 [4]: > 2 µM
- AUC [5]: 0.956
- IC50 [5]: > 8 µM
- AUC [6]: 0.987
- IC50 [6]: > 10 µM
- AUC [7]: 0.83
- IC50 [7]: 4.76 µM

Cell Line: HCC2157 (breast, suspension)
- AUC [1]: 0.784
- IC50 [1]: 1.79 µM
- AUC [2]: 0.722
- IC50 [2]: 0.275 µM
- AUC [3]: 0.78
- IC50 [3]: 2.22 µM
- AUC [4]: 0.67
- IC50 [4]: 0.382 µM
- AUC [5]: 0.982
- IC50 [5]: > 8 µM
- AUC [6]: 0.987
- IC50 [6]: > 10 µM
- AUC [7]: 0.966
- IC50 [7]: > 8 µM

Cell Line: HCC2218 (breast, suspension)
- AUC [1]: 0.769
- IC50 [1]: 1.89 µM
- AUC [2]: 0.951
- IC50 [2]: > 1 µM
- AUC [3]: 0.665
- IC50 [3]: 1.05 µM
- AUC [4]: 0.963
- IC50 [4]: > 2 µM
- AUC [5]: 0.879
- IC50 [5]: > 8 µM
- AUC [6]: 0.964
- IC50 [6]: > 10 µM
- AUC [7]: 0.98
- IC50 [7]: > 8 µM

Cell Line: HDLM-2 (Hodgkin lymphoma, suspension)
- AUC [1]: 0.964
- IC50 [1]: > 4 µM
- AUC [2]: 0.821
- IC50 [2]: 0.569 µM
- AUC [3]: 0.896
- IC50 [3]: > 5.12 µM
- AUC [4]: 0.653
- IC50 [4]: 0.33 µM
- AUC [5]: 0.923
- IC50 [5]: > 8 µM
- AUC [6]: 0.983
- IC50 [6]: > 10 µM
- AUC [7]: 0.821
- IC50 [7]: 4.54 µM

Cell Line: HH (T-cell leukaemia, suspension)
- AUC [1]: 0.355
- IC50 [1]: 0.0867 µM
- AUC [2]: 0.762
- IC50 [2]: 0.473 µM
- AUC [3]: 0.371
- IC50 [3]: 0.125 µM
- AUC [4]: 0.713
- IC50 [4]: 0.618 µM
- AUC [5]: 0.915
- IC50 [5]: > 8 µM
- AUC [6]: 0.975
- IC50 [6]: > 10 µM
- AUC [7]: 0.82
- IC50 [7]: 6.74 µM

Cell Line: IST-MEL1 (melanoma, adherent)
- AUC [1]: 0.837
- IC50 [1]: 3.45 µM
- AUC [2]: 0.799
- IC50 [2]: 0.588 µM
- AUC [3]: 0.616
- IC50 [3]: 0.711 µM
- AUC [4]: 0.604
- IC50 [4]: 0.256 µM
- AUC [5]: 0.847
- IC50 [5]: 7.73 µM
- AUC [6]: 0.948
- IC50 [6]: > 10 µM
- AUC [7]: 0.794
- IC50 [7]: 4.5 µM

Cell Line: IST-SL2 (small cell lung carcinoma, suspension)
- AUC [1]: 0.93
- IC50 [1]: > 4 µM
- AUC [2]: 0.752
- IC50 [2]: 0.328 µM
- AUC [3]: 0.989
- IC50 [3]: > 5.12 µM
- AUC [4]: 0.802
- IC50 [4]: 0.971 µM
- AUC [5]: 0.96
- IC50 [5]: > 8 µM
- AUC [6]: 0.989
- IC50 [6]: > 10 µM
- AUC [7]: 0.82
- IC50 [7]: 4.53 µM

Cell Line: JM1 (B-cell lymphoma, suspension)
- AUC [1]: 0.946
- IC50 [1]: > 4 µM
- AUC [2]: 0.678
- IC50 [2]: 0.181 µM
- AUC [3]: 0.169
- IC50 [3]: 0.0388 µM
- AUC [4]: 0.566
- IC50 [4]: 0.184 µM
- AUC [5]: 0.961
- IC50 [5]: > 8 µM
- AUC [6]: 0.991
- IC50 [6]: > 10 µM
- AUC [7]: 0.884
- IC50 [7]: 6.5 µM

Cell Line: JVM-2 (lymphoid neoplasm, suspension)
- AUC [1]: 0.45
- IC50 [1]: 0.177 µM
- AUC [2]: 0.925
- IC50 [2]: > 1 µM
- AUC [3]: 0.771
- IC50 [3]: 2.43 µM
- AUC [4]: 0.616
- IC50 [4]: 0.28 µM
- AUC [5]: 0.957
- IC50 [5]: > 8 µM
- AUC [6]: 0.971
- IC50 [6]: > 10 µM
- AUC [7]: 0.928
- IC50 [7]: > 8 µM

Cell Line: KARPAS-45 (lymphoblastic leukaemia, suspension)
- AUC [1]: 0.889
- IC50 [1]: 3.24 µM
- AUC [2]: 0.732
- IC50 [2]: 0.25 µM
- AUC [3]: 0.177
- IC50 [3]: 0.0431 µM
- AUC [4]: 0.413
- IC50 [4]: 0.0754 µM
- AUC [5]: 0.919
- IC50 [5]: > 8 µM
- AUC [6]: 0.979
- IC50 [6]: > 10 µM
- AUC [7]: 0.776
- IC50 [7]: 2.67 µM

Cell Line: KARPAS-299 (anaplastic large cell lymphoma, suspension)
- AUC [1]: 0.959
- IC50 [1]: > 4 µM
- AUC [2]: 0.876
- IC50 [2]: 0.71 µM
- AUC [3]: 0.426
- IC50 [3]: 0.208 µM
- AUC [4]: 0.613
- IC50 [4]: 0.241 µM
- AUC [5]: 0.966
- IC50 [5]: > 8 µM
- AUC [6]: 0.992
- IC50 [6]: > 10 µM
- AUC [7]: 0.747
- IC50 [7]: 2.19 µM

Cell Line: KARPAS-422 (B-cell lymphoma, suspension)
- AUC [1]: 0.891
- IC50 [1]: > 4 µM
- AUC [2]: 0.731
- IC50 [2]: 0.282 µM
- AUC [3]: 0.524
- IC50 [3]: 0.372 µM
- AUC [4]: 0.713
- IC50 [4]: 0.494 µM
- AUC [5]: 0.973
- IC50 [5]: > 8 µM
- AUC [6]: 0.986
- IC50 [6]: > 10 µM
- AUC [7]: 0.829
- IC50 [7]: 4.86 µM

Cell Line: KCL-22 (chronic myeloid leukaemia, suspension)
- AUC [1]: 0.823
- IC50 [1]: 1.88 µM
- AUC [2]: 0.694
- IC50 [2]: 0.197 µM
- AUC [3]: 0.333
- IC50 [3]: 0.12 µM
- AUC [4]: 0.767
- IC50 [4]: 0.63 µM
- AUC [5]: 0.98
- IC50 [5]: > 8 µM
- AUC [6]: 0.991
- IC50 [6]: > 10 µM
- AUC [7]: 0.911
- IC50 [7]: > 8 µM

Cell Line: KGN (ovary, adherent)
- AUC [1]: 0.726
- IC50 [1]: 1.28 µM
- AUC [2]: 0.811
- IC50 [2]: 0.675 µM
- AUC [3]: 0.462
- IC50 [3]: 0.247 µM
- AUC [4]: 0.507
- IC50 [4]: 0.131 µM
- AUC [5]: 0.773
- IC50 [5]: 3.78 µM
- AUC [6]: 0.97
- IC50 [6]: > 10 µM
- AUC [7]: 0.722
- IC50 [7]: 2.47 µM

Cell Line: KP-N-YN (neuroblastoma, adherent)
- AUC [1]: 0.957
- IC50 [1]: > 4 µM
- AUC [2]: 0.893
- IC50 [2]: > 1 µM
- AUC [3]: 0.383
- IC50 [3]: 0.147 µM
- AUC [4]: 0.836
- IC50 [4]: 1.51 µM
- AUC [5]: 0.955
- IC50 [5]: > 8 µM
- AUC [6]: 0.987
- IC50 [6]: > 10 µM
- AUC [7]: 0.9
- IC50 [7]: > 8 µM

Cell Line: KS-1 (glioma, adherent)
- AUC [1]: 0.721
- IC50 [1]: 1.25 µM
- AUC [2]: 0.509
- IC50 [2]: 0.0664 µM
- AUC [3]: 0.663
- IC50 [3]: 1.02 µM
- AUC [4]: 0.639
- IC50 [4]: 0.333 µM
- AUC [5]: 0.842
- IC50 [5]: 7.77 µM
- AUC [6]: 0.947
- IC50 [6]: > 10 µM
- AUC [7]: 0.68
- IC50 [7]: 1.82 µM
